Laboratory results reported in PubChem BioAssay AID1460 (National Center for Advancing Translational Sciences (NCATS), 2008).
Where “and” joins values, the source holds several entries; their conditions need not be identical. Equal values may be shown once. Screen size: about 270,000 compounds; about 5,800 (2.1%) were called active. The inconclusive results got no clear call from the source; some entries with a clear call stand among them for comparison. Calls come from the whole dose curve; as a rule, active = well fitted inhibition curve with a large enough effect; inconclusive = small, poorly fitted or top-dose-only effect; inactive = flat fitted curve, though single readings scatter. A potency beside an inconclusive call is a rough fit, not a confirmed value.

The compounds below were run against Microtubule-associated protein tau (Homo sapiens) (UniProt P10636) (assay: qHTS for Inhibitors of Tau Fibril Formation, Thioflavin T Binding). Conditions: recombinant tau K18 P301L (four-repeat tau fragment), heparin-induced fibrillization, ThT fluorescence; series mostly up to 57.4 µM; activity, negative = inhibition: at the top concentration.
In short: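 In this qHTS, human K18 P301L tau is incubated with compound and heparin for 6 hr at 37 C, and Thioflavin T fluorescence then reports fibril load.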
% is set by controls: 0 for no effect and ±100 for the full control effect; potency is the fitted concentration of half-maximal effect; tags give direction and shape of the fitted curve.
Note: nearly all actives have a fitted effect of over 55% in size.

Chain of UniProt P10636 (P10636 whole entry, looked up, the tested form may be a part): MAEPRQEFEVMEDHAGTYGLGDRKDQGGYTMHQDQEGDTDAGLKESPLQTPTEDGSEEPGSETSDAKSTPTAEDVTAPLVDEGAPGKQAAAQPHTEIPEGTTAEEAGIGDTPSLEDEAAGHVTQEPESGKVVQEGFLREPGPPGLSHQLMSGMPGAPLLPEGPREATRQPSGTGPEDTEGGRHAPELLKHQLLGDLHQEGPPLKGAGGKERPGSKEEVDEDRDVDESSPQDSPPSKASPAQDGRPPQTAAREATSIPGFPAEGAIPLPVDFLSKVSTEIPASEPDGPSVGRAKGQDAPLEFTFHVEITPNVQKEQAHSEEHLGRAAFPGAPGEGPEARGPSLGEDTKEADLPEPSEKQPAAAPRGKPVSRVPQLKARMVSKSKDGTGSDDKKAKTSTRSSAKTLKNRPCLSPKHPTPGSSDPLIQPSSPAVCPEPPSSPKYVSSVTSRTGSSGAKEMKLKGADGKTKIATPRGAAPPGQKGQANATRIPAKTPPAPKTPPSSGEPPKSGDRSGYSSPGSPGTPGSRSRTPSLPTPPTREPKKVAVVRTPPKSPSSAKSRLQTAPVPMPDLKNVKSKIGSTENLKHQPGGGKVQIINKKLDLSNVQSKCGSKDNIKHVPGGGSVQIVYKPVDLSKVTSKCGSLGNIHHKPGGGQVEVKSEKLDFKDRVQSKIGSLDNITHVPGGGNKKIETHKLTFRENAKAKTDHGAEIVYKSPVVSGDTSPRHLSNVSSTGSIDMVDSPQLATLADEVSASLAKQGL

Row | Structure (SMILES) | activity, negative = inhibition | Potency
1 | CCN1CCc2c(sc(NC(=O)CSc3ccccc3)c2-c2nc3ccccc3s2)C1 | inactive: -9.61% | –
2 | COc1ccc(-c2noc(-c3cc(C(C)C)[nH]n3)n2)cc1 | – | inconclusive: 3.16 µM [inhibitor, full curve, poor fit]
3 | COc1ccc(-c2cnnn2-c2ccc(NC(=O)c3ccc(S(=O)(=O)N4CCCCC4)cc3)cc2)cc1OC | inactive: 9.57% | –
4 | COc1ccccc1N(CC(=O)Nc1cc(C)on1)S(=O)(=O)c1ccc(Cl)cc1 | inactive: -19.9% | –
5 | CC(=O)Nc1ccc(NC(=O)C(C)OC(=O)CN(C)S(=O)(=O)c2ccc(Cl)cc2)cc1 (stereo unspecified) | inactive: -13.1% | –
6 | Cc1cccc(NCc2nc(-c3ccccc3)no2)c1 | – | inconclusive: 7.08 µM [inhibitor, partial curve]
7 | N#Cc1ccc(N2CCc3ccccc3C2)c([N+](=O)[O-])c1 | – | inconclusive: 10 µM [inhibitor, partial curve]
8 | CCN(CCCNC(=O)CCCN1C(=O)COc2ccc(C)cc21)c1cccc(C)c1 | – | inconclusive: 25.1 µM [inhibitor, partial curve]
9 | Cc1ccc(NC(=O)Cc2nc(CSc3nnc(-c4ccc5c(c4)OCO5)o3)cs2)cc1 | – | inconclusive: 0.562 µM [inhibitor, full curve]
10 | Cc1cc(=O)oc(C)c1C(=O)O | inactive: 5.95% | –
11 | CCN(CC)CCNc1nc(-n2nc(C)cc2C)nc2sc3c(c12)CC(C)(C)OC3 | – | inconclusive: 22.4 µM [inhibitor, partial curve]
12 | COc1ccc(CCC(=O)Nc2nc(-c3ccncc3)cs2)cc1 | – | inconclusive: 20 µM [inhibitor, partial curve]
13 | CCCCCCCn1c(=N)n(CC(=O)c2ccco2)c2ccccc21 | – | inconclusive: 39.8 µM [inhibitor, single point]
14 | Cc1cc(=O)[nH]c(N/N=C/c2c(O)n(-c3ccccc3)c(=O)c3ccccc23)n1 | – | inconclusive: 28.2 µM [inhibitor, single point]
15 | CN(C(=O)Cn1c(=O)n(Cc2ccc(C(=O)NCc3ccc4c(c3)OCO4)cc2)c(=O)c2ccccc21)c1ccccc1 | inactive: -5.45% | –
16 | O=C(CN1C(=O)S/C(=C/C=C/c2ccccc2)C1=O)Nc1ccc(C(=O)O)cc1 | – | inconclusive: 8.91 µM [inhibitor, partial curve]
17 | Cc1ccc(S(=O)(=O)Oc2ccc(C(c3c(C)[nH][nH]c3=O)c3c(C)[nH][nH]c3=O)cc2)cc1 | – | inconclusive: 25.1 µM [inhibitor, single point]
18 | O=c1c(O)c(-c2ccc3c(c2)OCO3)oc2ccccc12 | – | inconclusive: 8.91 µM [inhibitor, partial curve]
19 | O=C(COc1ccccc1)NCCc1csc(-c2ccc(F)cc2)n1 | inactive: -8.19% | –
20 | Cc1cc(C)cc(NC(=O)c2ccccc2CC[N+](=O)[O-])c1 | inactive: -0.338% | –
21 | CCc1nc(-c2ccc(OC)c(OC)c2)cc2cc(OC)c(OC)cc12 | – | inconclusive: 2 µM [inhibitor, full curve]
22 | COCCN1C=C2C(=O)C(C)(OC(=O)C3CCCC3)C(=O)C=C2C=C1c1ccsc1 (stereo unspecified) | – | inconclusive: 14.1 µM [inhibitor, partial curve] and inconclusive: 3.16 µM [inhibitor, single point]

Row | Structure (SMILES) | activity, negative = inhibition | Potency
23 | COC(=O)N1C(C)=Cc2ccccc2C1C/C(C)=C/C(C)=O (stereo unspecified) | – | inactive
24 | CCn1c(=O)c(C(=O)Nc2cc(OC)c(OC)c(OC)c2)nc2ccccc21 | – | inconclusive: 12.6 µM [inhibitor, partial curve]
25 | C#CCCOC(=O)Nc1ccccc1 | inactive: -6.93% | –
26 | Cc1nn(CCCC(=O)NCCc2ccc(Cl)cc2)c(=O)c2nn(-c3ccccc3)c(C)c12 | inactive: 3.15% | –
27 | C/C=C(\C)CN1CCN(c2cc(C)ccc2C)CC1 | inactive: -0.375% | –
28 | CCOc1ccc(C2NC(=S)NC3=C2CCc2ccccc23)cc1 (stereo unspecified) | – | inconclusive: 17.8 µM [inhibitor, partial curve, poor fit]
29 | CCOc1ccc(OCC(=O)NCCS(=O)(=O)N2CCN(c3ccc(OC)cc3)CC2)cc1 | inactive: -2.13% | –
30 | COC(=O)c1ccc(NC(=O)c2nn(C)c3c2COc2ccccc2-3)cc1 | – | inconclusive: 5.62 µM [inhibitor, partial curve]
31 | Clc1ccc(OCCn2c(-c3ccco3)nc3ccccc32)cc1 | – | inconclusive: 14.1 µM [inhibitor, partial curve]
32 | N#Cc1c(NC(=O)c2ccccc2)sc2c1CCC2 | inactive: -6.8% | –
33 | CC(=O)c1cc2c(=O)c3cc(C)ccc3oc2nc1C | – | inconclusive: 17.8 µM [inhibitor, single point]
34 | Cc1[nH]c2ccccc2c1/C=N/NC(=O)CCC(=O)NCc1ccccc1 | – | inconclusive: 25.1 µM [inhibitor, partial curve, poor fit]
35 | Cn1c(=O)c2[nH]c(-c3ccccc3)c(O)c2n(C)c1=O | – | inconclusive: 25.1 µM [inhibitor, partial curve]
36 | CCCN1CCCc2cc(CN(CCCN3CCOCC3)C(=O)Nc3ccc(OCC)cc3)ccc21 | – | inconclusive: 31.6 µM [inhibitor, single point] and inconclusive: 22.4 µM [inhibitor, partial curve]
37 | CC(=O)O[C@H]1C2OC(=O)C(C)=C2[C@@H]2OC(=O)[C@]3(CCC4OC41C)OC23 (stereo partly specified) | – | inconclusive: 25.1 µM [inhibitor, partial curve]
38 | COc1ccc(-n2c(Cc3ccccc3)nnc2SCc2ccc([N+](=O)[O-])cc2)cc1 | – | inconclusive: 31.6 µM [inhibitor, single point]
39 | C/C(CC(=O)Nc1ccc(OCc2ccccc2)cc1)=N\NC(=O)C(=O)Nc1cccc(C)c1 | – | inconclusive: 3.55 µM [inhibitor, partial curve]
40 | O=C(CC1(O)C(=O)N(CCc2ccccc2)c2ccccc21)c1ccccn1 (stereo unspecified) | – | inconclusive: 17.8 µM [inhibitor, partial curve]
41 | CCn1ncc(/C=N\NC(=O)Cc2ccc([N+](=O)[O-])cc2)c1C | inactive: -9.71% | –
42 | Cc1ccc(Cn2c(CN(C)Cc3ccccc3)nc3c2c(=O)n(C)c(=O)n3C)cc1 | – | inconclusive: 5.01 µM [inhibitor, partial curve, poor fit]
43 | CCc1nnc(NC(=O)c2ccc(Cl)nc2)s1 | – | inconclusive: 17.8 µM [inhibitor, partial curve]
44 | CC[C@H](C)C(=O)O[C@H]1C[C@@H](C)C=C2C=C[C@H](C)[C@H](CC[C@@H]3C[C@@H](O)CC(=O)O3)[C@H]21 | – | inactive and inconclusive: 20 µM [inhibitor, partial curve, poor fit]

Row | Structure (SMILES) | activity, negative = inhibition | Potency
45 | Cc1cc(C)nc(NS(=O)(=O)c2ccc(NC(=O)c3ccco3)cc2)n1 | inactive: -3.29% | –
46 | CCc1ccc(C2CC(=O)N(c3cccc(C(F)(F)F)c3)C3=C2C(=O)OC3)cc1 (stereo unspecified) | inactive: -3.55% | –
47 | C=CC[n+]1c(-c2ccc(OC)cc2)csc1NNC(=O)Nc1ccccc1 | – | inconclusive: 14.1 µM [inhibitor, partial curve]
48 | CCOCCc1nn2c(=O)cc(COC(=O)c3ccc(NC(=O)c4ccc(F)cc4)cc3)nc2s1 | inactive: 12.7% | –
49 | COc1ccccc1C(=O)NCCc1csc(-c2ccc(C(F)(F)F)cc2)n1 | – | inconclusive: 28.2 µM [inhibitor, partial curve, poor fit]
50 | COc1cc(NC(=O)Cn2c(=O)n(CC3CCCO3)c(=O)c3cc(OC)c(OC)cc32)cc(OC)c1 (stereo unspecified) | – | inconclusive: 39.8 µM [inhibitor, single point]
51 | CCOC(=O)C1(CCCc2ccccc2)CCN(Cc2nccn2CC)CC1 | – | inconclusive: 17.8 µM [inhibitor, single point]
52 | COc1cccc(NS(=O)(=O)c2ccc3[nH]cc(C(=O)NCCc4ccc(C)cc4)c(=O)c3c2)c1 | inactive: 8.16% | –
53 | Cc1ccc(-n2ccnc(NCc3cccs3)c2=O)cc1C | – | inconclusive: 39.8 µM [inhibitor, single point]
54 | Cc1cc(C)c2oc(C(=O)Nc3nc4ccc(Cl)cc4s3)cc(=O)c2c1 | – | inconclusive: 7.08 µM [inhibitor, partial curve]
55 | COc1ccc(OCCSc2nnc(-c3ccccc3)n2N)cc1 | – | inconclusive: 2 µM [inhibitor, full curve]
56 | CN1CCN(/N=C/c2ccc(OCc3ccccc3)cc2)CC1 | – | inconclusive: 0.501 µM [inhibitor, partial curve]
57 | COc1ccc(NC(=O)CC2Nc3cc(C)c(C)cc3NC2=O)c([N+](=O)[O-])c1 (stereo unspecified) | – | active: 11.2 µM
58 | COc1cc2nc(NC(=O)c3ccc(S(=O)(=O)N4CCCC4)cc3)sc2cc1OC | inactive: 0.186% | –
59 | O=C(COCc1cc(-c2ccc3c(c2)OCO3)on1)N1CCN(c2cccc(C(F)(F)F)c2)CC1 | – | inconclusive: 2.24 µM [inhibitor, partial curve]
60 | CC(=O)O/N=C(/c1nonc1N)N1CCN(c2ccc([N+](=O)[O-])cc2Cl)CC1 | – | inconclusive: 12.6 µM [inhibitor, partial curve]
61 | C[c-]1[c-](C)[c-](C)[c-](C)[c-]1C.[Fe].c1cc2nccc(N3CCCC3)[c-]2c1 (stereo unspecified) | – | active: 15.8 µM and active: 31.6 µM
62 | CCOC(=O)c1cc(NC(=O)c2ccco2)ccc1N1CCOCC1 | inactive: -4.37% | –
63 | CCC(C(=O)Nc1cc(OC)ccc1OC)n1nc(-c2ccccc2)c2c(c1=O)CCCC2 (stereo unspecified) | – | inconclusive: 25.1 µM [inhibitor, partial curve]
64 | O=C(CCCCC(=O)NC1CCCC1)NC1CCCC1 | inactive: 7.42% | –
65 | Cc1ccc(-c2cn3nc(N4CCC(C(=O)Nc5ccccc5C)CC4)sc3n2)cc1 | – | inconclusive: 1.58 µM [inhibitor, full curve]
66 | O=C(N/N=C/c1ccc([N+](=O)[O-])cc1)c1c[nH]c2ccccc12 | – | active: 2.82 µM
